Measurements as given in the domain aggregation screens of Martell et al. (2025).

Experiment: soluble fraction after stress (log2 fold change); higher = more stays soluble; pooled small domains, quantitative proteomics
Conditions: stress: 75 degC
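Note: 20 min heating vs room temperature control held 20 min.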

Row | Sequence | soluble fraction (log2)
1 | HMGGKYKPLILWHLIEGTKRFSALQRLLPQATPRMLTMNLRELESDGLVHRKVYPEVPPKTEYSLSDLGK | -0.387
2 | HMEVITIENEDAFTEGRAFAHSEGILVGISSGAALKAATILAERPENKGKTIVALLPDSGDRYLSTALFA | 0.135
